{"source": "PubChem BioAssay AID1460", "about": "(National Center for Advancing Translational Sciences (NCATS), 2008)", "note": "“And” between values parts separate entries of the source, which are not always exact repeats. Identical values can stand only once. Screen size: about 270,000 compounds; about 5,800 (2.1%) were called active. Inconclusive results, whose numbers are uncertain, are shown with a selection of clear calls. Calls come from the whole dose curve; as a rule, active = well fitted inhibition curve with a large enough effect; inconclusive = small, poorly fitted or top-dose-only effect; inactive = flat fitted curve, though single readings scatter. A potency beside an inconclusive call is a rough fit, not a confirmed value."}
{"molecular_target": "Microtubule-associated protein tau (Homo sapiens) (UniProt P10636)", "sequence (P10636 whole entry, looked up)": "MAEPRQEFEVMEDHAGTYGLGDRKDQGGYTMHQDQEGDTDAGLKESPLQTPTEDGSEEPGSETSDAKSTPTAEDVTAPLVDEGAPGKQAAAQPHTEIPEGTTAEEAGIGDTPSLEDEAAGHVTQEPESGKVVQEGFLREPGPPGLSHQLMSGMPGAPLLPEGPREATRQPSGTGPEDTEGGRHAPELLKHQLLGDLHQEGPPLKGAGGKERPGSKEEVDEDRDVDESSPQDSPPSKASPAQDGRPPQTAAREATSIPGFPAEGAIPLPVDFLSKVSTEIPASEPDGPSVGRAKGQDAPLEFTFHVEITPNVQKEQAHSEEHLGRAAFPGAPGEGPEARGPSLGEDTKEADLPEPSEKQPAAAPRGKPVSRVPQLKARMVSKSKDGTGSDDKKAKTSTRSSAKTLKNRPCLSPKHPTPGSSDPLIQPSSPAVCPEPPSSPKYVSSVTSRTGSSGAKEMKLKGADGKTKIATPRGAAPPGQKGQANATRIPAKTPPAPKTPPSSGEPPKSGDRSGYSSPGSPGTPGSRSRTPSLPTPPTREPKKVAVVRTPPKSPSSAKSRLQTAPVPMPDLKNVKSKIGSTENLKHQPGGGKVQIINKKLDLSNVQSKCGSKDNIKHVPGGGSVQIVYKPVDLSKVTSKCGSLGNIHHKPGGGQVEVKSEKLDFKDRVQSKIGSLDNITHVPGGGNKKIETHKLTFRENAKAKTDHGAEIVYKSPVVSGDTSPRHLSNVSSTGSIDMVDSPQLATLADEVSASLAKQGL", "assay": "qHTS for Inhibitors of Tau Fibril Formation, Thioflavin T Binding; note: nearly all actives have a fitted effect of over 55% in size; note: potency is the fitted concentration of half-maximal effect; tags give direction and shape of the fitted curve; for activity, negative = inhibition: % is set by controls: 0 for no effect and ±100 for the full control effect", "conditions": "recombinant tau K18 P301L, heparin-induced fibrillization, ThT fluorescence; series mostly up to 57.4 µM; activity, negative = inhibition: at the top concentration", "outline": "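ThT emission at 510 nm, taken 1 hr after adding 30 uM dye, quantifies aggregates formed when 20 uM heparin acts on human tau K18 P301L for 6 hr at 37 C.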"}
{"compound": "Cc1cccc(NC(=O)CN2C(=O)NC(C)(c3ccc4c(c3)OCO4)C2=O)c1", "note": "(stereo unspecified)", "Potency": "inconclusive: 3.98 µM [inhibitor, full curve]"}
{"compound": "CCOC(=O)c1ccc(NCCOC)c([N+](=O)[O-])c1", "Potency": "inconclusive: 17.8 µM [inhibitor, single point]"}
{"compound": "CCOC(=O)c1ccc(CC(=O)c2oc3cc(O)ccc3c2C)o1", "Potency": "inconclusive: 15.8 µM [inhibitor, partial curve]"}
{"compound": "CCCC(=O)Nc1ccc(N2CCN(C(=O)CCC)CC2)cc1", "Potency": "inconclusive: 35.5 µM [inhibitor, partial curve]"}
{"compound": "N#C/C(=C\\c1cn(Cc2ccc(C#N)cc2)c2ccccc12)C(=O)NCc1cccs1", "activity, negative = inhibition": "inactive: -0.853%"}
{"compound": "COc1ccc(C(=O)/C=C/c2ccc(C)cc2)c(OC(=O)c2ccc([N+](=O)[O-])cc2)c1", "Potency": "active: 3.55 µM"}
{"compound": "O=C(NCCCn1ccnc1)c1ccc(N2CCCCC2)c([N+](=O)[O-])c1", "Potency": "inconclusive: 22.4 µM [inhibitor, single point]"}
{"compound": "CCOC(=O)/C(=N\\Nc1ccc(Cl)cc1)Sc1nnc(-c2ccc(OC)cc2)n1C", "activity, negative = inhibition": "inactive: -12.5%"}
{"compound": "Cc1coc(NC(=O)CSc2nc(-c3ccncc3)cc(C(F)(F)F)c2C#N)n1", "Potency": "inconclusive: 3.98 µM [inhibitor, full curve]"}
{"compound": "CC(C)c1nc2ccccn2c1NC1CCCCC1", "activity, negative = inhibition": "inactive: -3.4%"}
{"compound": "Cc1nn(-c2ccccc2)c(N)c1N=Nc1cccc(S(=O)(=O)N2CCOCC2)c1", "Potency": "inconclusive: 10 µM [inhibitor, partial curve]"}
{"compound": "Cc1ccc(-c2nn3c(-c4ccccc4C)nnc3c3ccccc23)cc1", "Potency": "inconclusive: 20 µM [inhibitor, partial curve, poor fit]"}
{"compound": "CCOC(=O)CN1C(=O)C(O)(c2c(C)[nH]c3ccccc23)c2ccccc21", "note": "(stereo unspecified)", "Potency": "inconclusive: 14.1 µM [inhibitor, single point]"}
{"compound": "COc1ccc(OCc2nc(C#N)c(N3CCN(c4ccc(OC)cc4)CC3)o2)cc1", "Potency": "inconclusive: 12.6 µM [inhibitor, partial curve]"}
{"compound": "CC1CCc2c(sc(NC(=O)Cc3ccccc3)c2C(=O)Nc2ccc(Cl)cc2)C1", "note": "(stereo unspecified)", "activity, negative = inhibition": "inactive: 4.25%"}
{"compound": "C[n+]1c2n(c3ccccc31)N=C(c1ccc(Cl)cc1)CS2", "Potency": "inconclusive: 22.4 µM [inhibitor, partial curve]"}
{"compound": "O=C(Nc1ccc(N2CCN(c3ccccc3)CC2)c(F)c1)C1CC1", "Potency": "inconclusive: 1.58 µM [inhibitor, full curve]"}
{"compound": "CC[n+]1ccc(C)c2cc(SC(F)(F)F)ccc21", "Potency": "inconclusive: 10 µM [inhibitor, partial curve]"}
{"compound": "CCCn1c2ccccc2c2cnn(CC(=O)Nc3cc(C)c(Cl)cc3OC)c(=O)c21", "activity, negative = inhibition": "inactive: -2.89%"}
{"compound": "c1ccc2c3c(c(CN4CCCC4)cc2c1)COC3", "Potency": "inconclusive: 0.251 µM [inhibitor, full curve, poor fit]"}
{"compound": "N#C/C(=C(/O)CCl)c1nc(-c2ccccc2)cs1", "Potency": "inconclusive: 22.4 µM [inhibitor, partial curve, poor fit]"}
{"compound": "COc1ccc(NC(=O)Nc2ccc3nccnc3c2)cc1", "Potency": "inconclusive: 15.8 µM [inhibitor, partial curve]"}
{"compound": "Cc1ccc(NC2(C#N)C(=O)Nc3ccccc32)cc1C", "note": "(stereo unspecified)", "Potency": "inconclusive: 31.6 µM [inhibitor, single point]"}
{"compound": "CCc1ccc(-n2c(=O)c3c4c(sc3n(Cc3ccccc3C#N)c2=O)CCCC4)cc1", "activity, negative = inhibition": "inactive: -7.47%"}
{"compound": "CCCOc1ccc(C2C(=O)N(C3CCCCCC3)CC(=O)N2Cc2ccccc2OC)cc1OC", "note": "(stereo unspecified)", "activity, negative = inhibition": "inactive: -11.9%"}
{"compound": "CN(C)S(=O)(=O)c1ccc(NCC2COc3ccccc3O2)c([N+](=O)[O-])c1", "note": "(stereo unspecified)", "Potency": "inconclusive: 6.31 µM [inhibitor, partial curve]"}
{"compound": "COc1cc(NC(=O)CC2C(=O)N(c3ccccc3)C(=O)N2Cc2ccc(F)cc2)cc(OC)c1", "note": "(stereo unspecified)", "activity, negative = inhibition": "inactive: -6.94%"}
{"compound": "Cc1cc(-c2cc(N)n(-c3ccccc3)n2)c(C)n1C1CCCC1", "Potency": "inconclusive: 1.58 µM [inhibitor, partial curve]"}
{"compound": "NNc1nnc(NN)c2ccccc12", "Potency": "inconclusive: 31.6 µM [inhibitor, partial curve]"}
{"compound": "CC(=O)c1cccc(NC(=O)c2ccc3c(=O)n4c(nc3c2)CCCCC4)c1", "activity, negative = inhibition": "inactive: -7.32%"}
{"compound": "COCCn1c(C)cc(O)c(C(c2ccccc2)N2CCN(CCO)CC2)c1=O", "note": "(stereo unspecified)", "Potency": "inconclusive: 2 µM [inhibitor, partial curve]"}
{"compound": "O=[N+]([O-])c1cccc(C(=S)N2CCN(c3ccccc3)CC2)c1", "Potency": "inconclusive: 20 µM [inhibitor, single point]"}
{"compound": "O=C(CS(=O)(=O)Cc1ccccc1)Nc1ccc(Cl)cn1", "activity, negative = inhibition": "inactive: -9.01%"}
{"compound": "COc1cc2ncnc(Nc3cccc(Cl)c3)c2cc1OC", "Potency": "inactive and inconclusive: 35.5 µM [activator, single point]"}
{"compound": "O=C1NC(=S)S/C1=C1\\Sc2ccccc2N1CCCS(=O)(=O)O", "Potency": "inconclusive: 20 µM [inhibitor, partial curve]"}
{"compound": "Nn1cc(-c2ccccc2)nc1SCC(=O)NC1CCS(=O)(=O)C1", "note": "(stereo unspecified)", "activity, negative = inhibition": "inactive: -14.5%"}
{"compound": "CN(C(=O)CSc1nnc(-c2ccc([N+](=O)[O-])cc2)o1)C1CCCCC1", "activity, negative = inhibition": "inactive: -5.16%"}
{"compound": "COc1cc(NC(=O)CCCOc2ccc(Cl)cc2Cl)c(C(=O)O)cc1OC", "Potency": "inconclusive: 12.6 µM [inhibitor, partial curve]"}
{"compound": "CCCCOC(=O)Oc1ccc2c(=O)c(Oc3cc(C)cc(C)c3)coc2c1", "Potency": "inconclusive: 11.2 µM [inhibitor, partial curve]"}
{"compound": "CC(C)(C)Cc1nnc(NC(=O)CN2C(=O)c3ccccc3C2=O)s1", "activity, negative = inhibition": "inactive: -2.27%"}
{"compound": "N#Cc1nc(-c2cccs2)oc1NCc1ccc2c(c1)OCO2", "Potency": "inconclusive: 28.2 µM [inhibitor, partial curve, poor fit]"}
{"compound": "Cc1ccc(Cl)cc1NC(=O)CCCn1c(=O)c2cccn2c2ccccc21", "Potency": "inconclusive: 14.1 µM [inhibitor, partial curve]"}
{"compound": "O=C(COc1ccccc1)Nc1ccc(-c2nnc(-c3ccco3)o2)cc1", "Potency": "inconclusive: 0.178 µM [inhibitor, full curve]"}
{"compound": "CC1=CC2=NC(=O)/C(=C\\c3cccn3CCOc3cc(C)cc(C)c3)C(=N)N2O1", "Potency": "inconclusive: 12.6 µM [inhibitor, partial curve]"}
{"compound": "O=c1oc2cc(O)ccc2s1", "Potency": "inconclusive: 8.91 µM [inhibitor, partial curve]"}
{"compound": "COCCn1c(N2CCN(c3ccccc3)CC2)nc2c1c(=O)n(C)c(=O)n2C", "activity, negative = inhibition": "inactive: -3.89%"}
{"compound": "COc1ccc(C(=O)NCc2nnc(SCC(=O)N3CCc4ccccc43)n2CCc2ccccc2)cc1", "Potency": "inconclusive: 22.4 µM [inhibitor, single point]"}
{"compound": "CC(=O)O[C@@H]1[C@@]2(C)O[C@H]2CC[C@]23O[C@H]2[C@H](OC3=O)C2=C(C)C(=O)O[C@@]21O", "Potency": "inconclusive: 12.6 µM [inhibitor, partial curve, poor fit]"}
{"compound": "CCOc1ccc(NC(=O)N2CCC(CN3CCCCCC3)CC2)cc1", "Potency": "inconclusive: 39.8 µM [inhibitor, single point]"}
{"compound": "CCn1c(-c2cc(-c3cc(OC)ccc3OC)nc3ccccc23)n[nH]c1=S", "activity, negative = inhibition": "inactive: -12.4%"}
{"compound": "Cc1ccc(OCC(=O)NNC(=O)c2cccnc2)cc1C", "Potency": "inconclusive: 20 µM [inhibitor, single point]"}
{"compound": "C=CCNC(=S)Nc1cccc2[nH]ncc12", "Potency": "inconclusive: 22.4 µM [inhibitor, single point]"}
{"compound": "CN(C)c1ccc(/C=N\\NC(=O)c2ccc(Cn3cc(Cl)cn3)cc2)cc1", "Potency": "inconclusive: 4.47 µM [inhibitor, partial curve]"}
{"compound": "COc1ccc(CNC(=O)c2cnn3c(C(F)F)cc(C)nc23)cc1OC", "activity, negative = inhibition": "inactive: -3.68%"}
{"compound": "COc1cc(/C=C(\\C#N)C(=O)NCCc2ccccc2)cc(OC)c1O", "Potency": "inconclusive: 15.8 µM [inhibitor, partial curve]"}
{"compound": "Cc1ccc(Cl)cc1NC(=O)c1sc2nc(-c3ccccc3)cn2c1C", "Potency": "inconclusive: 0.562 µM [inhibitor, full curve]"}
{"compound": "Cc1c(/C(O)=C2/C(=O)C(=O)N(CCN3CCOCC3)C2c2ccccn2)cnn1-c1ccccc1", "note": "(stereo unspecified)", "Potency": "inconclusive: 35.5 µM [inhibitor, single point]"}
{"compound": "CCOC(=O)c1ccc(NC(=O)c2nc[nH]c2C(=O)NCCCCCNC(=O)OC(C)(C)C)cc1", "Potency": "inconclusive: 3.55 µM [activator, single point]"}
{"compound": "Cc1ccc(/C([O-])=C(/C(=S)NCCN2CCOCC2)[n+]2ccccc2)cc1[N+](=O)[O-]", "Potency": "inconclusive: 39.8 µM [inhibitor, single point]"}
{"compound": "Cc1ccc(C)c(CSC2=NC(C)(C)Nc3ccccc32)c1", "Potency": "inconclusive: 17.8 µM [inhibitor, partial curve]"}
{"compound": "CC(=O)Oc1cc(-c2coc3cc(OC(C)=O)c(OC(C)=O)c(OC(C)=O)c3c2=O)cc(OC(C)=O)c1OC(C)=O", "Potency": "active: 3.55 µM"}
{"compound": "CCc1cccc(NC(=O)c2cc3c(=O)[nH]c4ccccc4c3n2C)c1", "Potency": "inconclusive: 0.562 µM [inhibitor, full curve, poor fit]"}
{"compound": "O=C(NC(=S)Nc1ccc(C(=O)N2CCOCC2)cc1)c1ccc([N+](=O)[O-])cc1", "activity, negative = inhibition": "inactive: -9.5%"}
{"compound": "Cn1c(-c2ccc(Cl)cc2)cnc1NCc1cc2c(cc1[N+](=O)[O-])OCO2", "Potency": "inconclusive: 15.8 µM [inhibitor, partial curve]"}
{"compound": "O=C(COc1ncnc2sccc12)N1CCN(c2ccccc2)CC1", "Potency": "inconclusive: 28.2 µM [inhibitor, partial curve, poor fit]"}
{"compound": "Cc1ccc(C(=O)Nc2ncc3c(Cl)cccc3n2)cc1", "Potency": "inconclusive: 1.78 µM [inhibitor, full curve]"}
